Laboratory results: PMC8892012
No constants are given. Whether binding was seen depends on the method and setting. Binding seen in cells or lysates may run through a third protein. Some results given as binding are weak or reduced against the parent protein; the word gives no strength.

By UniProt entry, the sequences of proteins in these tests, tags left out. Where a name states a change or a piece, a line headed by the entry shows the natural chain unless it says otherwise. Chains listed by the source or under a name are the forms on record and can include a tag or linker.
UniProt Q9HC97: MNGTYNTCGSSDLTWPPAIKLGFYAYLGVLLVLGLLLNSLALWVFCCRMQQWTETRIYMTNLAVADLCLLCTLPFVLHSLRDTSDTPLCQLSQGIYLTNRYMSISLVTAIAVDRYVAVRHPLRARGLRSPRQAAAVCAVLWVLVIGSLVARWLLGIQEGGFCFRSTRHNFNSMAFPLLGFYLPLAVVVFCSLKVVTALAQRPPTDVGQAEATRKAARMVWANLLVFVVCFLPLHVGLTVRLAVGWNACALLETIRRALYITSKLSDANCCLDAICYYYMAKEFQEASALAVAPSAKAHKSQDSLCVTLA
hGPR35a-eYFP Ser300Ala (Q9HC97, form named): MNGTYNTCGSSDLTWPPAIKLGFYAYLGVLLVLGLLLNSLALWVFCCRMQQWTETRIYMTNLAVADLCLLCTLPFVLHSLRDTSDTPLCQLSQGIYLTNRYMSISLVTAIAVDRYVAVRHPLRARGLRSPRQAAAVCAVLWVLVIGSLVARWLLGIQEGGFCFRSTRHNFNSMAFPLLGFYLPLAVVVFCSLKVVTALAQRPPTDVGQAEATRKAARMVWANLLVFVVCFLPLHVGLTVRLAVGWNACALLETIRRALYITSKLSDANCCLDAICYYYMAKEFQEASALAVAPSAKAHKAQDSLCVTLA
hGPR35a-eYFP Ser300Ala/Ser303Ala (Q9HC97, form named): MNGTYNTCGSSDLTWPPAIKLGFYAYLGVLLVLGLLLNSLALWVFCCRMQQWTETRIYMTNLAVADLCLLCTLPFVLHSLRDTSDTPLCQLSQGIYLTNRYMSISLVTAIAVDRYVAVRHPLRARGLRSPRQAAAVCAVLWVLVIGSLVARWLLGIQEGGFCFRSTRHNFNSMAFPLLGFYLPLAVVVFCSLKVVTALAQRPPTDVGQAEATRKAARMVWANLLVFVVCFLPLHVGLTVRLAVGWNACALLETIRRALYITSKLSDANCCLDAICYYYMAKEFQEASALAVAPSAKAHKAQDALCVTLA
hGPR35a-eYFP Ser287Ala (Q9HC97, form named): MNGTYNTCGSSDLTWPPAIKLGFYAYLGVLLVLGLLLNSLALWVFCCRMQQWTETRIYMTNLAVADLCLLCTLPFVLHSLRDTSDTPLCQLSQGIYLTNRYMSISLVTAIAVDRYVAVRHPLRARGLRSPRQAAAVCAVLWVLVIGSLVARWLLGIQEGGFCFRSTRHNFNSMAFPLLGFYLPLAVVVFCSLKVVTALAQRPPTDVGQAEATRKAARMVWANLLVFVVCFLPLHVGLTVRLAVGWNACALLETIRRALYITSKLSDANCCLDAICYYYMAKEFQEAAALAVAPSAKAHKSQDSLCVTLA
hGPR35a-eYFP Ser303Ala/Thr307Ala (Q9HC97, form named): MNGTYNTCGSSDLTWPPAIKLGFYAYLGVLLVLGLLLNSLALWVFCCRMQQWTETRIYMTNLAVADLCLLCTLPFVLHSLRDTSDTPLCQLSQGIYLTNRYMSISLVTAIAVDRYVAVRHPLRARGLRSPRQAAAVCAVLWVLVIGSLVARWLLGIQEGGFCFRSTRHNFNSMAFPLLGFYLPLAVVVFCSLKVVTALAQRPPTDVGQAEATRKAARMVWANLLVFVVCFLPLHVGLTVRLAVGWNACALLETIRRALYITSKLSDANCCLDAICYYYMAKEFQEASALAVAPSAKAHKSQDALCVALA
hGPR35a-eYFP Thr307Ala (Q9HC97, form named): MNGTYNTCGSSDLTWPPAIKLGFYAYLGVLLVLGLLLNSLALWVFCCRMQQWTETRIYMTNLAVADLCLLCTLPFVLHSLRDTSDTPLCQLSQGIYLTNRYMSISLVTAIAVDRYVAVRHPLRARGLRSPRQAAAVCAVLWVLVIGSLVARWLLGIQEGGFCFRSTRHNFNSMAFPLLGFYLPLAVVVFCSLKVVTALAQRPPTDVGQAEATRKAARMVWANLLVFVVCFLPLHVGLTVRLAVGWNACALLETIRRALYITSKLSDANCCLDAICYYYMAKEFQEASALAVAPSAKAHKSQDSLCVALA
hGPR35a-eYFP Ser303Ala (Q9HC97, form named): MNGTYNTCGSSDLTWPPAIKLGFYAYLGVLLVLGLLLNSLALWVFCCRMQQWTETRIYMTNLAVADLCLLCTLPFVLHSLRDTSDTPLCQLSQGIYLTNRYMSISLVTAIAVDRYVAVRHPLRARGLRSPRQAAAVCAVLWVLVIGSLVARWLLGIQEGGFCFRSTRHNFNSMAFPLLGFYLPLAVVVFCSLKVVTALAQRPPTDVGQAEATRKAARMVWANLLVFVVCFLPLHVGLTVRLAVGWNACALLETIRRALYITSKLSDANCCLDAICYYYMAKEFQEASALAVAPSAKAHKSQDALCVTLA
hGPR35a-PDM-eYFP (Q9HC97, form named): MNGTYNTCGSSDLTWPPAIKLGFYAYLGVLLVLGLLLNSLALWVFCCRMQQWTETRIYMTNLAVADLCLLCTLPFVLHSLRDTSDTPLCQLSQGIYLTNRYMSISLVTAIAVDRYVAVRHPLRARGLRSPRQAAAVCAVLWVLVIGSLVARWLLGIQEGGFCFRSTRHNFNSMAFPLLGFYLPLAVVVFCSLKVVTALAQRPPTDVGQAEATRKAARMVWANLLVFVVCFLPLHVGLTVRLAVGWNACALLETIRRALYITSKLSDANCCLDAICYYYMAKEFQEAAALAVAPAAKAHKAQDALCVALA
hGPR35a-eYFP Ser294Ala (Q9HC97, form named): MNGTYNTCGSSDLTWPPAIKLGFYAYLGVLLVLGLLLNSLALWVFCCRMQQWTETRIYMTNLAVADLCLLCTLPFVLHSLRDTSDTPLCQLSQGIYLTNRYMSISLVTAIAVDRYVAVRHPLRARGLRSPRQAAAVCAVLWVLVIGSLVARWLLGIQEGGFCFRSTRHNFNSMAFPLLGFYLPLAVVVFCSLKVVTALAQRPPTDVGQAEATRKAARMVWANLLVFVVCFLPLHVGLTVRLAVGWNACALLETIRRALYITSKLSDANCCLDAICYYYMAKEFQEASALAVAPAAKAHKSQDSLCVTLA
UniProt Q9ES90: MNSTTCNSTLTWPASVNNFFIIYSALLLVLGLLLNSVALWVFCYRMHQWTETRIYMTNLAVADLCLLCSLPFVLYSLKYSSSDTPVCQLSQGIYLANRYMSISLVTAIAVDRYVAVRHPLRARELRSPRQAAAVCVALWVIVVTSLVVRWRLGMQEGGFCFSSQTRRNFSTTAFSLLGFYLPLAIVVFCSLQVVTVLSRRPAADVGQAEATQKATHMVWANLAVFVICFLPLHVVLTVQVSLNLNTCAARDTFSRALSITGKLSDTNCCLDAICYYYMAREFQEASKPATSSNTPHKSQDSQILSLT
mGPR35-eYFP mutant C (Ser298 and Ser301 to alanine) (Q9ES90, form named): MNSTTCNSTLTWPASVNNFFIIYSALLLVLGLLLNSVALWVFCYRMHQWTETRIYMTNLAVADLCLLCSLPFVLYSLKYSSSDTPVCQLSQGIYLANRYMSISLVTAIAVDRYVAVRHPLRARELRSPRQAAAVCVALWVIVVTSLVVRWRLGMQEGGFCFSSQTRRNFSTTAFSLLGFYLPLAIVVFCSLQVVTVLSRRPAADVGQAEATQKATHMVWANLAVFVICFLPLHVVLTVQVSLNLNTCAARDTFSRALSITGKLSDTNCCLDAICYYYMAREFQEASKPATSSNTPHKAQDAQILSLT

Key:
Assay in all cases: FRET or BRET; HEK293T cells transiently co-transfected with FLAG-GPR35-eYFP (WT or mutant) and arrestin-3-RLuc in a 4:1 ratio; HBSS, 37 °C; coelenterazine-h 5 μM; agonist (zaprinast; for hGPR35a also pamoic acid) for 5 min; net BRET = 535 nm/475 nm minus the ratio of cells with arrestin-3-RLuc only
[1] = molecular target: hGPR35a-eYFP Ser300Ala (human) (UniProt Q9HC97)
[2] = molecular target: hGPR35a-eYFP Ser300Ala/Ser303Ala (human) (UniProt Q9HC97)
[3] = molecular target: hGPR35a-eYFP Ser287Ala (human) (UniProt Q9HC97)
[4] = molecular target: mGPR35-eYFP mutant C (Ser298 and Ser301 to alanine) (mouse) (UniProt Q9ES90)
[5] = molecular target: FLAG-hGPR35a-eYFP (human) (UniProt Q9HC97)
[6] = molecular target: hGPR35a-eYFP Ser303Ala/Thr307Ala (human) (UniProt Q9HC97)
[7] = molecular target: hGPR35a-eYFP Thr307Ala (human) (UniProt Q9HC97)
[8] = molecular target: FLAG-mGPR35-eYFP (mouse) (UniProt Q9ES90)
[9] = molecular target: hGPR35a-eYFP Ser303Ala (human) (UniProt Q9HC97)
[10] = molecular target: hGPR35a-PDM-eYFP (human) (UniProt Q9HC97)
[11] = molecular target: hGPR35a-eYFP Ser294Ala (human) (UniProt Q9HC97)

binding [1]: binds | binding [2]: binds weakly | binding [3]: binds | binding [4]: no binding | binding [5]: binds | binding [6]: binds weakly | binding [7]: binds | binding [8]: binds | binding [9]: binds | binding [10]: no binding | binding [11]: binds
Substance: arrestin-3 fused to Renilla luciferase (from UniProt P32121 1-409)
